This note sets out measurements from ChEMBL document CHEMBL4888484, “Replenishing the malaria drug discovery pipeline: Screening and hit evaluation of the MMV Hit Generation Library 1 (HGL1) against asexual blood stage Plasmodium falciparum ,using a nano luciferase reporter read-out” (2022).

About 540 (0.36%) of roughly 150,000 compounds showed an effect of 50% or more. This is one part of the list.

This assay concerns Plasmodium falciparum. Nature of the assay: Primary screen in NF54 nanoGlo assay, in single point, at 2uM, 72h; a lower Z score goes with more inhibition. It counts as functional, Erythrocyte. The settings on record: timepoint 72 hour.
For the molecule `CNS(=O)(=O)c1ccccc1CN[C@@H](C)c1ccc(C)s1`, the % Inhibition (commonly the change of the read-out against control, counted positive when it falls) is on record as -8% and the Z score is recorded as 0.92.
Turning to `C#CCN(C[C@H]1CCCO1)C(=O)Nc1ccn(CCOC)n1`, the “% Inhibition” value is reported as -6% and the Z score was 0.93.
For `CN(CCS(C)(=O)=O)C(=O)[C@@H]1CCCc2sccc21` the same measures were -5% and 0.59.
For `CC(C)N1CCCCC1C(=O)NC1CC=CCC1` (centres undefined) the same measures were -1% and 0.17.
For `CCC[C@H](C)c1c(-c2ccccc2)ncn1C1CCN(S(C)(=O)=O)CC1` the same measures were -20% and 2.9.
As to `CN1CCN2CCN(C(=O)CCOc3ccccc3)C[C@H]2C1=O`, the “% Inhibition” value is -2% and the Z score was 0.32.
On to `Clc1cccc(OC2CN(C[C@@H]3CCCN4CCCC[C@H]34)C2)c1`, for which the “% Inhibition” value was found to be 3% and the Z score is -0.42.
For `CN(CC(=O)N1CCc2ccccc21)c1cccc(C#N)c1` the same measures were 0% and -0.01.
For `Cc1nc(N2CCC[C@H](c3cc[nH]n3)C2)c2cnn(C)c2n1` the same measures were -19% and 2.09.
For `COc1ccc(-c2nc(N3CCC(Cc4ccccc4)CC3)nc3nn(C)c(N)c23)c(F)c1` the same measures were 11% and -1.36.
Take `Cc1sc(CC(=O)N2CC(C)(C)[C@H]2c2cccnc2)nc1C(C)C`: the “% Inhibition” value is -14% and the Z score is on record as 1.9.
For `C[C@H]1COCCN1C(=O)CCc1nc2ccccc2s1` the same measures were -8% and 1.26.
In the case of `Cc1nc(-c2cn([C@H]3CCCN(C(=O)c4cccc(N(C)C)c4)C3)nn2)no1`, the “% Inhibition” value was -7% and the Z score is given as 0.85.
Take `Cc1cc(CN(C)C(=O)NCc2ccncc2)no1`: the “% Inhibition” value is -15% and the Z score came to 1.76.
Turning to `COc1cccc(C(=O)NCc2cncc(-c3ccsc3)c2)c1`, the “% Inhibition” value was -14% and the Z score is recorded as 2.11.
On to `Cc1onc(C(=O)NCCc2ccc(Cl)cc2)c1CN1CCOCC1`, for which the “% Inhibition” value was -12% and the Z score worked out at 1.26.
Regarding `Cc1nnc(CN(CC(C)C)c2cccc(O)c2)o1`, the “% Inhibition” value is -7% and the Z score was determined as 1.07.
For `COC(=O)c1ccc(NC(=O)Cn2c(=O)n(Cc3ccc(F)cc3)c(=O)c3nn(C)cc32)cc1` the same measures were -7% and 1.01.
For `CN(C)C(=O)C[C@H]1CCc2nn(Cc3cccnc3)c(=O)n2CC1` the same measures were 6% and -0.9.
For `Cn1ccnc1[C@@H](O)c1cc2n(n1)CCN(c1ccc(C#N)cn1)C2` the same measures were -22% and 2.19.
For the molecule `CC1CN(S(=O)(=O)c2ccc3c(c2)CCC3)CC(C)O1` (centres undefined), the “% Inhibition” value is -2% and the Z score was 0.38.
`O=C(c1ccc2nsnc2c1)N1CC(N2C(=O)C3CC=CCC3C2=O)C1` (centres undefined): the “% Inhibition” value is listed as -3% and the Z score is 0.29.
For `COCCN1CCC[C@H](NC(=O)C(F)(F)C2(O)CCC2)C1` the same measures were -5% and 0.66.
For `CC1(C(=O)N2CCC[C@]3(CNC(=O)C3)C2)CCCCCC1` the same measures were -6% and 0.68.
Regarding `COCCN1C(=O)c2ccc(-c3nc4ccccc4o3)cc2C1=O`, the “% Inhibition” value is on record as -5% and the Z score stood at 0.77.
On to `CC(C)C[C@@H](CNCc1ccc(F)cc1F)N(C)C`, for which the “% Inhibition” value is -6% and the Z score was found to be 0.7.
For `CCCCNC(=O)Cn1c(C)c(Cc2ccccc2)c(=O)n2nc(-c3ccc(C)cc3)nc12` the same measures were 0% and 0.01.
For `COc1cccc(NC(=O)c2nnn(-c3ccc(F)c(C)c3)c2-c2cccnc2)c1` the same measures were -9% and 1.59.
Turning to `COc1ccc2c(C)c(C(=O)N3CCC4(CCCC4)C3)oc2c1`, the “% Inhibition” value is listed as -7% and the Z score is reported as 0.69.
For `COc1ccc(CCN2C(=O)N[C@@H](CC(=O)N3CCN(c4ccccn4)CC3)C2=O)cc1` the same measures were 2% and -0.28.
Regarding `CN1C(=O)c2cc(C(=O)N3CCCCCC3)nn2C[C@@]1(C)C(=O)NC1CCCCCC1`, the “% Inhibition” value came to 12% and the Z score is listed as -1.34.
For the molecule `CCOc1cc(C(=O)NC2CC(C)(F)C2)ccn1` (centres undefined), the “% Inhibition” value is -10% and the Z score came to 1.73.
`CC(C)CCN1CC[C@@H](NC2CCCCC2)CCC1=O`: the “% Inhibition” value is -4% and the Z score is 0.55.
Regarding `O=C(NCCCNC(=O)c1ccc(-c2ccc(Cl)c(Cl)c2)o1)c1cnccn1`, the “% Inhibition” value is given as -8% and the Z score was 0.85.
On to `Cc1ccc(NC(=O)C(=O)Nc2ccc3nccnc3c2)c(C)c1`, for which the “% Inhibition” value stood at 2% and the Z score is listed as -0.34.
Take `Cn1cc([C@H]2N(C(=O)CCc3ccc(C(N)=O)cc3)CC2(C)C)cn1`: the “% Inhibition” value was -1% and the Z score is given as 0.13.
For `CC(C)C[C@H](CCO)CNC(=O)c1cc(F)c(F)c(F)c1` the same measures were -11% and 1.26.
For `Cc1cc(C(=O)N(CC2CCN(Cc3ccccc3F)CC2)C[C@H]2CCCO2)c(C)o1` the same measures were -15% and 2.62.
As for `CC1CC(Nc2cccc(S(=O)(=O)N3CCC(O)CC3)c2)C(C)O1` (centres undefined), the “% Inhibition” value is listed as -13% and the Z score turned out to be 2.34.
For `CCN(CC(=O)N1c2ccccc2NC(=O)C[C@@H]1C)Cc1ccc(Cl)s1` the same measures were -4% and 0.39.
Take `CCOC(=O)c1c(S(=O)(=O)NCC(=O)Nc2cc(C)cc(C)c2)c(C)n(CC)c1C`: the “% Inhibition” value is reported as -18% and the Z score stood at 1.62.
For `C[C@H](NC1CCN(c2nc3ccccc3o2)CC1)c1nnc(N)s1` the same measures were -2% and 0.26.
